# Data taken from PMC4336329 (PLoS ONE, 2015).
# Among all 310,000 compounds or so, about 2,200 (0.71%) showed an effect of 50% or more. The effect is printed as a negative number. This is one part of the list.
# Target: human ether-à-go-go-related gene (hERG) potassium channel (human, UniProt Q12809)
# Assay: primary screen, population patch clamp on CHO cells stably expressing hERG
# Sequence of human ether-à-go-go-related gene (hERG) potassium channel (Q12809 whole entry, looked up): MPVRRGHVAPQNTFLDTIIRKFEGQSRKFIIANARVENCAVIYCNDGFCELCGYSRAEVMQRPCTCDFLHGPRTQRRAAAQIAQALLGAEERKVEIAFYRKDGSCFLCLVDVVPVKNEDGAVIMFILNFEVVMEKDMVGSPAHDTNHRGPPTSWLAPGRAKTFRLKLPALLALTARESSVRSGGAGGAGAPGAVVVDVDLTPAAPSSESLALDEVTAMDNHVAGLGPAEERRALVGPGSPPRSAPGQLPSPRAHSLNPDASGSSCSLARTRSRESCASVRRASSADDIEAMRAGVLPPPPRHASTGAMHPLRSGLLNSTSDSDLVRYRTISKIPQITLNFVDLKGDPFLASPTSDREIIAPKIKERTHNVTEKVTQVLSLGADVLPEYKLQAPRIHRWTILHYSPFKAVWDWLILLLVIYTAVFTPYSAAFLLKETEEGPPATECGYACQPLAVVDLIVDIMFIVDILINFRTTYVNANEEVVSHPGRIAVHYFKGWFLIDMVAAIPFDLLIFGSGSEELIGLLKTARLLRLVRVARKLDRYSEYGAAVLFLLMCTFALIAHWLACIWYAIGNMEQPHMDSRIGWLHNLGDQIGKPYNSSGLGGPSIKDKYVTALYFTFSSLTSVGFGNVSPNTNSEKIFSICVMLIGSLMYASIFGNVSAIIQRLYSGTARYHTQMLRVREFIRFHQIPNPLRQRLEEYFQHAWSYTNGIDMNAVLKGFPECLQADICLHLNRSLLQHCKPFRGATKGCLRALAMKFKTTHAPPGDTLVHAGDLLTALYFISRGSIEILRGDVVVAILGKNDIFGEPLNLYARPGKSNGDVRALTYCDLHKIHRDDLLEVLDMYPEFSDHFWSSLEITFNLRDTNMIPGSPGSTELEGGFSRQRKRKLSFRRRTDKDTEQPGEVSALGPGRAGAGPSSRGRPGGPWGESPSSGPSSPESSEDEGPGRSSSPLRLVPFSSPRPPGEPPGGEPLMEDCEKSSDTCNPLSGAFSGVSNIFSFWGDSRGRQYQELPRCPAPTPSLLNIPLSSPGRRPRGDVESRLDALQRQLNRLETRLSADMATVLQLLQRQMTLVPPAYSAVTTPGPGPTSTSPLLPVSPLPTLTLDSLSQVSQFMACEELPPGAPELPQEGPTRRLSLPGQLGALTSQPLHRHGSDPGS
row,Structure (SMILES),"hERG current change (%, negative = inhibition) at 1uM [%]"
1,CN(CC(=O)Nc1ccc(F)c(F)c1F)C(=O)c1ccc(=O)[nH]c1,18.6
2,COC(CNC(=O)c1cnn2c(C)c(Cc3ccccc3)c(C)nc12)OC,5.93
3,CC(C)N(C)S(=O)(=O)c1ccc(NC(=O)CSC(=S)N2CCCC2)cc1,6.97
4,COc1ccc(C(=O)O)cc1S(=O)(=O)NCc1cccnc1,15.1
5,C/C=C(\C)CN1CCC(Oc2cc(C(=O)NC3CC3)ccc2OC)CC1,-59.9
6,CC(=O)Nc1ccc(Nc2ncnc3c2cnn3-c2ccc(C)cc2C)cc1,-14.8
7,CCCCn1c(CN2CCOCC2)nc2c1c(=O)n(C)c(=O)n2C,11.9
8,O=C(N1CCCC1)N1CCN(S(=O)(=O)c2ccccc2)CC1,14.8
9,O=C(CCc1nc2ccccc2[nH]c1=O)OCC(=O)c1ccc(Cl)cc1,3.45
10,COc1ccc(-c2csc(NC(=O)Cc3ccccc3F)n2)cc1OC,12.2
11,C/C(=N\NC(=O)COc1ccccc1[N+](=O)[O-])c1cccc(NC(=O)c2ccncc2)c1,12.5
12,O=C(COC(=O)c1cc(=O)[nH]c2ccccc12)NC1CCCCCCC1,9.18
13,COC(=O)C(C(=O)OC)C(c1ccccc1)C(C(=O)c1ccccc1)[N+](=O)[O-] (centres unmarked),13.3
14,COc1ccc(Cn2ccnc2)cc1Br.Cl,14.9
15,COc1ccccc1OCCCn1cc(C(=O)C2CC2)c2ccccc21,10.1
16,Cc1ccc2c(c1C)NC(=O)C2(O)CC(=O)c1ccc2c(c1)OCO2 (centres unmarked),4.51
17,O=C(c1cc(N2C(=O)C3C4CCC(C4)C3C2=O)ccc1Cl)N1CCN(c2ccccc2F)CC1 (centres unmarked),1.55
18,COc1cc(C(=O)NCC(=O)N/N=C/c2ccc(-c3ccc([N+](=O)[O-])cc3)o2)cc(OC)c1OC,7.05
19,Cc1ccc(S(=O)(=O)c2ccc(Cl)cc2)cc1S(=O)(=O)N1CCN(C)CC1,-2.11
20,Cc1nc2cc(Cl)c(Cl)cc2nc1C,13.5
21,COc1cc(/C=N/NS(=O)(=O)c2ccc(C)c([N+](=O)[O-])c2)cc([N+](=O)[O-])c1O,17.2
22,COc1ccc(OC)c(NC(=O)C2CCCN2C(=O)NC2CCCCC2)c1 (centres unmarked),10.4

row,Structure (SMILES),"hERG current change (%, negative = inhibition) at 1uM [%]"
1,O=C(NCCOc1ccccc1-c1ccccc1)c1ccco1,17.7
2,O=C(O)/C=C/C(=O)Nc1nccs1,14
3,Cc1cccc(OCCNC(=O)c2ccc(Cl)c(S(=O)(=O)NCc3cccnc3)c2)c1,-14.6
4,O=[N+]([O-])c1cc(S(=O)(=O)NCCc2ccccn2)ccc1Cl,8.28
5,Cc1ccc(NC(=O)CN2CCC(NC(=O)c3cccc(F)c3)CC2)cc1C,-13.4
6,CC(OC(=O)c1cc(S(=O)(=O)N2CCOCC2)ccc1F)C(=O)NC1CCCCC1C (centres unmarked),9.77
7,Cc1cccn2c(=O)c3cc(C(=O)NCc4ccco4)c(=N)n(CCOCCO)c3nc12,-63.3
8,COc1cc2nc(CN3CCOCC3)n(CC(=O)NCC(F)(F)F)c(=O)c2cc1OC,11.5
9,CC(C)C(=O)N1CCN(c2ccccc2NC(=O)c2ccco2)CC1,-2.98
10,COc1ccc(-c2[nH]ncc2CNC(C)c2ccccc2Cl)cc1F (centres unmarked),5.44
11,CC1CCN(CC(=O)Nc2ccccc2C#N)CC1,13.1
12,COc1ccc(S(=O)(=O)N2CCCC(C(=O)NCc3ccncc3)C2)cc1 (centres unmarked),-1.34
13,CC(=O)c1ccc(N2CCN(C(=O)C3(S(=O)(=O)c4ccc(Cl)cc4)CC3)CC2)cc1,-17
14,COC(=O)c1sccc1OC(C)C(C)=O (centres unmarked),12.6
15,CN(Cc1ccccc1)S(=O)(=O)c1ccc(OCC(=O)NCc2ccncc2)cc1,-34.8
16,CC(=O)c1cccc(S(=O)(=O)N2CCC(C(=O)N(C)Cc3ccc(Cl)s3)CC2)c1,6.24
17,CCOc1cc(C(=O)N/N=C(\C)Cc2ccc(OC)cc2)cc(OCC)c1OCC,-1.7
18,O=C(NCc1ccccc1)[C@H]1C[C@@H]1[C@H](NP(=O)(c1ccccc1)c1ccccc1)c1ccccc1,11.5
19,N#Cc1ccc(CSc2ccc(S(=O)(=O)N3CCCC3)cn2)cc1,-17.2
20,CC(C)N(CCNC(=O)c1nn(Cc2ccccc2)c(=O)c2ccccc12)C(C)C,-25.1
21,CN1CCc2nc3sc(C(=O)NC4CC4)c(N)c3cc2C1,5.35
22,O=C1/C(=C/c2ccccc2)CCC1C1CCCC1 (centres unmarked),3.37

row,Structure (SMILES),"hERG current change (%, negative = inhibition) at 1uM [%]"
1,Cc1nc(SC(C(=O)c2ccccc2)c2ccccc2)nc2ccccc12 (centres unmarked),5.07
2,CC(=O)Nc1nonc1-c1ccccc1,-7.82
3,O=c1[nH]c(=S)n(CCC2=CCCCC2)c(O)c1C=NC1CCN(Cc2ccccc2)CC1,2.93
4,OCC1(CO)COC(c2ccccc2)=N1,1.59
5,O=C(Cc1c(O)c2ccccc2[nH]c1=O)NCc1ccccc1F,6.38
6,CCOc1cccc(CN2CCCC(CNC(=O)c3cccc(OC)c3OC)C2)c1 (centres unmarked),5.09
7,CCCCNC(=O)C1=C(N)C(C(=O)Nc2ccc(C)c(S(=O)(=O)N3CCCCC3)c2)SC1=Nc1ccc(C)cc1C (centres unmarked),-5.69
8,CCc1ccc(/C(C)=N/Nc2cc(Cl)nc(C)n2)cc1,14.9
9,CCOC(=O)c1c(C)oc2ccc(O)c(CN3CCCCC3)c12,-14.4
10,COCc1ccc(-c2c(-c3cccc(OC)c3)sc3ccc(OC)cc23)cc1,11.4
11,Cc1cccc2cc(-c3ccccc3)c(-c3ccccc3)c[n+]12.[Br-],-5.36
12,COC(=O)C1C/C(=N\NS(=O)(=O)c2ccc(C)cc2)c2sccc2C1 (centres unmarked),3.01
13,O=C1COc2ccc3ccccc3c2CN1,10.5
14,CC1(O)CCN2C(=O)CCc3cccc1c32 (centres unmarked),-0.42
15,NC(=O)C1(N2CCCCC2)CCN(C2CC(=O)N(CCc3ccccc3)C2=O)CC1 (centres unmarked),-1.13
16,Cn1c(=O)c2c(nc(N3CCc4ccccc4C3)n2Cc2ccccc2F)n(C)c1=O,3.55
17,O=C(CCNC(=O)C1CCN(S(=O)(=O)c2ccccc2)CC1)Nc1cccc(C(F)(F)F)c1,2.36
18,COc1cc(-c2noc(CCC(=O)NC3CCCCC3)n2)cc(OC)c1OC,15.1
19,O=C(c1ccc(C(=O)N2CCCCCC2)cc1)N1CCCCCC1,-0.715
20,CC1CC(C)CN(CCC(=O)Nc2cccc(Cl)c2)C1 (centres unmarked),-26.9
21,O=C(Nc1ccnc(-c2cccnc2)n1)c1cccc(Cl)c1Cl,9.13
22,CCN(CC)C(=S)Nc1ccc(C(=O)OC)cc1,3.93

row,Structure (SMILES),"hERG current change (%, negative = inhibition) at 1uM [%]"
1,CCOC(=O)C1=C(C)Nc2ncnn2C1c1cc(Br)ccc1F (centres unmarked),8.42
2,CN(CC(=O)Nc1c(Cl)cccc1Cl)C(=O)CNC(=O)c1ccc2ccccc2c1,10.3
3,CC(Sc1nnnn1-c1ccc(O)cc1)C(=O)NC1CCCCC1C (centres unmarked),7.54
4,Cc1oc(-c2cccc3ccccc23)nc1CN1CCN(c2ncnc3ccccc23)CC1,2.48
5,CCC1=Nc2cc(C(=O)NCc3cccnc3)ccc2Sc2ccc(C)cc21,9.85
6,O=C(CN(C(=O)C1CSC(=O)C1)c1ccccc1F)NCc1ccc2c(c1)OCO2 (centres unmarked),2.3
7,Cc1ccc(S(=O)(=O)CCC(=O)OCC(=O)N2c3ccccc3NC(=O)C2(C)C)cc1,13.5
8,Cc1c2cnn(CC(=O)N3CCC4(CC3)OCCO4)c(=O)c2c(C)n1Cc1ccccc1,-3.91
9,O=C(N/N=C/c1ccc(OC(F)F)cc1OC(F)F)c1ccc(Br)cc1,10.7
10,c1ccc(CCN2CCN(c3ncnc4c3cnn4-c3ccccc3)CC2)cc1,8.45
11,CCn1c(=O)cc(OCC(=O)N2CCCCCC2)c2ccccc21,11.2
12,CCCCCC(=O)Nc1cc(S(=O)(=O)N2CCOCC2)ccc1N1CCCCC1,0.999
13,Cc1cc(/C=C2\C(=O)NC(=O)N(Cc3ccccc3Cl)C2=O)c(C)n1-c1ccc(C(=O)O)cc1,20.9
14,CCOc1ccc(C(=O)Nc2cccc(-c3nc4ccccc4[nH]3)c2C)cc1[N+](=O)[O-],-4.51
15,Cc1nn(C)c(C)c1C1C(C#N)=C(N)Oc2n[nH]c(C)c21 (centres unmarked),3.63
16,Cc1ccc(N/N=C/c2ccc(N3CCOCC3)cc2)cc1C,6.49
17,COc1ccc(CNC(=O)CN2CCC(NC(=O)c3ccccc3C)CC2)cc1,-3.19
18,O=S(=O)(c1ccc2c(c1)nc1n2CCC1)N1CCOCC1,-13.3
19,COc1ccc(-c2csc(N3N=C(C)C(C)C3=O)n2)cc1 (centres unmarked),4.01
20,COCCNC(C)C(=O)C12CC3CC(CC(C3)C1)C2.Cl (centres unmarked),5.23
